Measured values reported in paper PMC12629600.

Molecular target: human insulin (Sigma #I2643) (human) (UniProt P01308)
Assay: ELISA; human insulin coated at 1 ug/ml in borate buffered saline pH 8 on Maxisorp plates; mAbs serially diluted 1:2 from 10 ug/ml in 0.5% chicken serum PBS-T, room temperature; detected with goat anti-human IgG-HRP; AUC compared to the isotype negative control, positive cutoff AUC ratio of 7

UniProt P01308, sequence (P01308 25-54, chain 1 of 2): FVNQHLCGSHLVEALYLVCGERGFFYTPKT
UniProt P01308, sequence (P01308 90-110, chain 2 of 2): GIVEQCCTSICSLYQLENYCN

B1: Stage 1 T1D mAb 3 (antibody, V domains shown)
VH: [about 100 residues not shown]DSGYCVDWGQGTLVTVSS
VL: DIQMTQSPSTLSASVGDRVTITCRASQSISSWLAWYQQKPGNAPNLLIYKASSLESGVPSRFSGSGSGTEFTLTISSLQPDDFATYYCQQYNSNRTFGQGTKVEIK
**Q.** B1 was tested. Which Insulin-binding AUC ratio (to the isotype negative control) did it give?
**A.** 10.3

B2: Stage 1 T1D mAb 15 (antibody, V domains shown)
VH: QVQLQQSGPGLVKPSQTLSLTCVISGDSVSRNSAAWNWIRQSPSRGLEWLGRTYYKSKWYNDYAVSVKSRITINPHTSKNQFSLQLNSVTPEDTAVYYCARSPPRRAALPFRYYGMDVWGQGTTVTVSS
VL: [about 100 residues not shown]PETFGQGTKLEIK
**Q.** With B2 as the binder, how does the Insulin-binding AUC ratio (to the isotype negative control) read?
**A.** 10
